Laboratory results: the supplement of paper PMC3334620
In all, about 33,000 sequences were measured (“E-score (-0.5 to 0.5)”: median about -0.04, highest 2% from about 0.36 on). Some of the results follow.

The sequences below were run against T1, Hmlalpha2 (UniProt P0CY09) (assay: PBM E-score (8-mer binding enrichment) (E-score (-0.5 to 0.5)); higher = stronger / more preferred TF binding; most listed sequences are background and not binding sites). Details: protein concentration: 200 nM; construct: GST-full length.
T1 sequence: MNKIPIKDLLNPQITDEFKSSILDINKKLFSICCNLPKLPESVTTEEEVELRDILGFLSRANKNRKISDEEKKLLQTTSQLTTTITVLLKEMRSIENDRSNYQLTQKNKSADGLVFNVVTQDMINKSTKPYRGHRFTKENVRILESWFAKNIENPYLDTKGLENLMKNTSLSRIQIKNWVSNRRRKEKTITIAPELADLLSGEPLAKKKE
Method in brief: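 Universal all-10-mer Agilent arrays, fresh or stripped once, were converted to double-stranded form by primer extension. GST-tagged yeast transcription factors from PURExpress in vitro transcription/translation, full-length or DNA-binding domain only, were applied at about 100-200 nM and detected with fluorescent anti-GST. After masliner normalisation, the Universal PBM Analysis Suite scored each ungapped eight-base word together with its reverse complement by E-score.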
With GAATTGTA the “PBM E-score” value was 0.184.
CTTGCAAA was tested, and the “PBM E-score” value was 0.0667.
AGAAACAA was tested, and the “PBM E-score” value was 0.225.
For CAGATGCA, the “PBM E-score” value was -0.0821.
In the case of AACCACGA, the “PBM E-score” value is reported as -0.0978.
GCTTCGGA was tested, and the “PBM E-score” value was -0.092.
CAAGTTCA was tested, and the “PBM E-score” value was 0.107.
With GATTATGA the “PBM E-score” value was 0.0529.
With CTGCAGAA the “PBM E-score” value was -0.0616.
In the case of CGCGGCTC, the “PBM E-score” value is reported as -0.083.
For CCGTTCGA, the “PBM E-score” value was -0.209.
With CCGTGGCG the “PBM E-score” value was -0.125.
For CATGGCGG, the “PBM E-score” value was 0.0118.
ATACAGAA was tested, and the “PBM E-score” value was 0.199.
With CCTTAAAG the “PBM E-score” value was -0.181.
In the case of AGCTGGTG, the “PBM E-score” value is reported as -0.0156.
CATTTAGG was tested, and the “PBM E-score” value was -0.262.
With CCAAATAC the “PBM E-score” value was 0.0549.
With ACAACACT the “PBM E-score” value was 0.248.
With ACGCCGTA the “PBM E-score” value was 0.0926.
With GGATGTTA the “PBM E-score” value was 0.299.
CTTGCAGA was tested, and the “PBM E-score” value was -0.179.
CTCGGAAA was tested, and the “PBM E-score” value was -0.0783.
With GTCGCGGA the “PBM E-score” value was -0.252.
With CAAGCATA the “PBM E-score” value was 0.00757.
For AGGGGTAT, the “PBM E-score” value was -0.308.
CTATAATA was tested, and the “PBM E-score” value was -0.00916.
For GCATAGGC, the “PBM E-score” value was -0.119.
CACATCCA was tested, and the “PBM E-score” value was -0.0316.
In the case of AACATAGC, the “PBM E-score” value is reported as 0.302.
For CGATAGCG, the “PBM E-score” value was -0.173.
In the case of ACTAAATA, the “PBM E-score” value is reported as 0.0908.
With CCAGCGGA the “PBM E-score” value was -0.195.
With ACGCATGC the “PBM E-score” value was 0.247.
For CCCTCTTA, the “PBM E-score” value was -0.176.
For AAGGCTTG, the “PBM E-score” value was -0.117.
CAACGTAC was tested, and the “PBM E-score” value was 0.191.
CTCTCACC was tested, and the “PBM E-score” value was -0.106.
For GTTATCTA, the “PBM E-score” value was -0.0962.
In the case of CGACATCG, the “PBM E-score” value is reported as 0.0366.
ACAGCCCT was tested, and the “PBM E-score” value was -0.0612.
In the case of AACACCGT, the “PBM E-score” value is reported as 0.0335.
In the case of GACCAGCA, the “PBM E-score” value is reported as -0.198.
With TCCTTGAA the “PBM E-score” value was -0.0733.
For AGGGTTCG, the “PBM E-score” value was -0.231.
TATTGACA was tested, and the “PBM E-score” value was 0.303.
CCAGGTCC was tested, and the “PBM E-score” value was -0.333.
In the case of ACGGATAT, the “PBM E-score” value is reported as 0.0727.
For AGCGCGAA, the “PBM E-score” value was -0.0236.
CTGCGGAA was tested, and the “PBM E-score” value was -0.283.
For GATATTCA, the “PBM E-score” value was -0.165.
For AATTAGCT, the “PBM E-score” value was 0.0319.
GCCCCCCC was tested, and the “PBM E-score” value was -0.373.
For CGTGTACA, the “PBM E-score” value was 0.467.
In the case of CACTTTAA, the “PBM E-score” value is reported as 0.0285.
For ATACCACG, the “PBM E-score” value was 0.0559.
In the case of AGATTCGC, the “PBM E-score” value is reported as -0.135.
For ATGGCGTG, the “PBM E-score” value was -0.00649.
In the case of CCTAGACG, the “PBM E-score” value is reported as -0.214.
With CTAATTTA the “PBM E-score” value was 0.25.
For CACTGCAG, the “PBM E-score” value was -0.197.
For GAAAGCGC, the “PBM E-score” value was -0.011.
GAACCTTC was tested, and the “PBM E-score” value was -0.06.
ACCAAAGT was tested, and the “PBM E-score” value was -0.0226.
In the case of CGAAGCAG, the “PBM E-score” value is reported as -0.247.
For AACCAGTG, the “PBM E-score” value was -0.035.
ACAGCTGG was tested, and the “PBM E-score” value was -0.162.
With TTCCTCAA the “PBM E-score” value was 0.036.
For GTAAAAGA, the “PBM E-score” value was 0.293.
AGGAGCCA was tested, and the “PBM E-score” value was -0.196.
With AACACTCA the “PBM E-score” value was 0.131.
TGGTGGAA was tested, and the “PBM E-score” value was -0.0717.
In the case of ACAGGCCG, the “PBM E-score” value is reported as -0.00834.
With GAGTACTC the “PBM E-score” value was 0.0474.
For GCAGTGTA, the “PBM E-score” value was 0.292.
AGTCTCCG was tested, and the “PBM E-score” value was -0.22.
With AAGGACAT the “PBM E-score” value was 0.201.
GCTGCCAC was tested, and the “PBM E-score” value was -0.213.
For GAAAAATA, the “PBM E-score” value was 0.035.
For AGATACTC, the “PBM E-score” value was -0.0627.
In the case of ACTGACGA, the “PBM E-score” value is reported as 0.057.
For TAAGTTAA, the “PBM E-score” value was 0.179.
For ACATCGCG, the “PBM E-score” value was 0.177.
With GATTGTGC the “PBM E-score” value was 0.0144.
With TCGGTAAA the “PBM E-score” value was 0.19.
In the case of CCTGCCGC, the “PBM E-score” value is reported as -0.316.
ACCAGCTC was tested, and the “PBM E-score” value was -0.0549.
In the case of CGTCAACG, the “PBM E-score” value is reported as 0.0662.
With AAAATCCT the “PBM E-score” value was -0.033.
For ATGCCCGG, the “PBM E-score” value was -0.309.
In the case of CCTGGATA, the “PBM E-score” value is reported as -0.306.
ACCTTTTA was tested, and the “PBM E-score” value was 0.00411.
ATCCTTTG was tested, and the “PBM E-score” value was -0.0584.
For CCGCCGCG, the “PBM E-score” value was -0.202.
For GATCGGCC, the “PBM E-score” value was -0.222.
With CACTTTTC the “PBM E-score” value was -0.135.
GTATGCAC was tested, and the “PBM E-score” value was 0.133.
In the case of ACGATACC, the “PBM E-score” value is reported as -0.0403.
In the case of AAGCAGAT, the “PBM E-score” value is reported as -0.145.
In the case of CGTGTCTC, the “PBM E-score” value is reported as 0.0847.
ATGTCACC was tested, and the “PBM E-score” value was -0.02.
CGTACACA was tested, and the “PBM E-score” value was 0.347.
In the case of TGCGATAA, the “PBM E-score” value is reported as 0.123.
With TGCAAACA the “PBM E-score” value was 0.193.
CGAATCGA was tested, and the “PBM E-score” value was 0.178.
For ACTAGGCG, the “PBM E-score” value was 0.00872.
In the case of GTTGTAGA, the “PBM E-score” value is reported as 0.325.
With CGTTGCTC the “PBM E-score” value was 0.00228.
ATCCCGCG was tested, and the “PBM E-score” value was -0.117.
CGAAAAGA was tested, and the “PBM E-score” value was 0.199.
In the case of ATGTAGAA, the “PBM E-score” value is reported as 0.43.
For AAATCGCC, the “PBM E-score” value was -0.343.
CACAGTTA was tested, and the “PBM E-score” value was 0.265.
With CAATCAAG the “PBM E-score” value was 0.0126.
In the case of ATGAGTTG, the “PBM E-score” value is reported as -0.00258.
With CGTACGCC the “PBM E-score” value was 0.0378.
For GGGAGCTA, the “PBM E-score” value was -0.105.
For GAGCGTGA, the “PBM E-score” value was -0.134.
In the case of CTCGTGGA, the “PBM E-score” value is reported as -0.107.
In the case of ATAAGGCA, the “PBM E-score” value is reported as -0.0529.
For GAATGTCC, the “PBM E-score” value was -0.108.
For AAGGATCA, the “PBM E-score” value was -0.0579.
With TAGCTGGA the “PBM E-score” value was -0.104.
For AACTTTAA, the “PBM E-score” value was 0.135.
ATGAAGAC was tested, and the “PBM E-score” value was 0.028.
For GAAAGCCA, the “PBM E-score” value was -0.278.
In the case of AAAAATTA, the “PBM E-score” value is reported as 0.172.
For CTGTCACA, the “PBM E-score” value was 0.00436.
With ATGCGTGC the “PBM E-score” value was 0.15.
With CATCAACA the “PBM E-score” value was 0.297.
For CACATGTG, the “PBM E-score” value was 0.163.
With AATGTCCG the “PBM E-score” value was -0.122.
With AGACTGGA the “PBM E-score” value was -0.0528.
In the case of TGAGCTCA, the “PBM E-score” value is reported as 0.0748.
In the case of CCTGGCTA, the “PBM E-score” value is reported as -0.198.
For CACAAGGC, the “PBM E-score” value was 0.033.
In the case of CAGGAGTC, the “PBM E-score” value is reported as -0.149.
With AGTTACTG the “PBM E-score” value was 0.0811.
For ATGATGTC, the “PBM E-score” value was 0.0939.
In the case of ACTGAAAT, the “PBM E-score” value is reported as -0.0297.
With CCCTCAGG the “PBM E-score” value was -0.294.
In the case of AGAAATGG, the “PBM E-score” value is reported as -0.106.
For CGATCCGC, the “PBM E-score” value was -0.177.
In the case of ACTCGGGA, the “PBM E-score” value is reported as -0.201.
In the case of AGTATTAC, the “PBM E-score” value is reported as 0.317.
In the case of AACGTGGC, the “PBM E-score” value is reported as 0.012.
For CACAGAGA, the “PBM E-score” value was 0.0962.
With AAGCCCAA the “PBM E-score” value was 0.017.
CAATCTAG was tested, and the “PBM E-score” value was 0.0661.
For CAACCGGA, the “PBM E-score” value was -0.0983.
With GACCTGCC the “PBM E-score” value was -0.209.
With CGGTAAAA the “PBM E-score” value was 0.152.
In the case of CCTTCCTC, the “PBM E-score” value is reported as -0.273.
With CACTAACG the “PBM E-score” value was 0.0194.
In the case of GAATATTC, the “PBM E-score” value is reported as -0.0157.
For GCGTGACC, the “PBM E-score” value was -0.136.
For GAATCCAA, the “PBM E-score” value was -0.269.
In the case of GACGGGAC, the “PBM E-score” value is reported as -0.311.
In the case of ACCCAGTG, the “PBM E-score” value is reported as -0.0618.
With AAGGAAAC the “PBM E-score” value was -0.113.
With ACACACTA the “PBM E-score” value was 0.305.
For AATGCATT, the “PBM E-score” value was -0.0692.
With ATCCAACG the “PBM E-score” value was -0.135.
For CAGGTTAC, the “PBM E-score” value was 0.018.
With AACCATGA the “PBM E-score” value was 0.149.
For CGGAGAGA, the “PBM E-score” value was -0.145.
For TAGCGATA, the “PBM E-score” value was 0.0182.
AGGCGAAA was tested, and the “PBM E-score” value was -0.282.
In the case of CAGGATGG, the “PBM E-score” value is reported as -0.197.
With CGGGCGAA the “PBM E-score” value was -0.173.
With GGGCGAAC the “PBM E-score” value was -0.178.
In the case of GTCGGTTA, the “PBM E-score” value is reported as -0.121.
